According to the supplement of paper PMC11417369:
± gives the standard deviation of the averaged measurements. Some of the results follow.

System: PfAP2-EXP AP2 domain (GST-tagged)
Experiment: gcPBM binding intensity (ln(normalized median fluorescence intensity)); higher = stronger DNA binding
Method in brief: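 Binding intensity is the highest Masliner-normalised natural-log median intensity over replicate spots in either probe orientation. To obtain it, GST-tagged P. falciparum DNA-binding domains made in E. coli were incubated for 1 h on an Agilent 4 × 180k array of primer-extended double-stranded 36-bp intergenic genomic probes plus negative controls. Detection used Alexa488 anti-GST antibody with scanning at 488 nm.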

Sequence	gcPBM binding intensity (ln)
GATTTATATAATTCAAGTACTAAAAATATTTTTAAT [XGTACX_site5285]	8.46 ± 0.25
TAACATTAAAATAAAAGTACTTAATAATATTAAGTA [XGTACX_site5920]	8.31 ± 0.42
AAAAAAAATATCTATGCATGTAATATTATGATATTG [TGCATGCA_site546]	8.52 ± 0.28
TTAATAATAAATGAAAGTACATATAAAAAAAAAAAA [XGTACX_site717]	8.61 ± 0.47
TAAAATTTTTGTTTTTGTACGAAACATCAATTTTAC [XGTACX_site4963]	8.45 ± 0.56
TTCTATATATTTGGAAGTACATTATATTTATTTTTT [XGTACX_site3172]	8.44 ± 0.33
CATATATAAATATGTACACACATATGTATGATCTCA [CACACA_site3868]	8.4 ± 0.26
TTATTTATAAGTAATATTATATATTCTTTTAATACA [CACACA_negctrl_site471]	7.93 ± 0.37
ATAGGCAAAAAGTGTACACATTCATTTATATAAATA [CACACA_site4480]	8.88 ± 0.36
AGATCTATTATTTTTTGTACTTATATATAAACTTAA [XGTACX_site1737]	8.72 ± 0.36
AATGGTATAAACAATACACACATAATATAAATATTG [CACACA_site6878]	8.3 ± 0.42
TTATATATAAATGTGTGTACTTATAAAATAATCATT [XGTACX_site5370]	8.44 ± 0.22
AAAAAAATTACGCAAGTGCATATAATTTAACAAAAA	8.37 ± 0.29
ATATATATATATCACGCACACACGAATTTTAAATAT [CACACA_site3131]	10.2 ± 0.2
ATCGCGAAGTAGCATTCACACACAGCAAAATATATA [CACACA_site9162]	8.71 ± 0.67
AACATTTATATAAAAGAACACACATATAAAATATTA [CACACA_site9199]	8.45 ± 0.49
AATGGTAATCCACATACACACACACCGACACATATA [CACACA_site8876]	8.72 ± 0.49
AAATAACAAAAGAAGGTGCTCATAAAAATTCATACA [GTGCAC_site9864]	8.68 ± 0.41
CATTTACCCTTATTAACACACAAAATAAAATACGCT [CACACA_site7249]	8.53 ± 0.45

Sequence	gcPBM binding intensity (ln)
AAAAAAAAAAAAAAAAAAAAAAAAAAAAAAAAAAAA [CACACA_negctrl_site204]	9.385 ± 0.064
ATACAATGATATATACATATATATATATATATATAT [TGCATGCA_negctrl_site359]	10.2 ± 0.49
AAATTATAAAAAAAAAAAAAAAAAAAAAAAAAAAAA [XGTACX_negctrl_site501]	7.95 ± 0.35
AACAATAGTAAAAATACACACATTAAACTTCATTTC [CACACA_site2126]	8.41 ± 0.38
AATCATGCTCCGGAAAGTACATAAATAAATAAATAA [XGTACX_site1690]	8.86 ± 0.42
ACAAAATTTTTAAGAACACACAAAAATGTACTATCG [CACACA_site2550]	8.42 ± 0.34
GAAAGGACAAGAATAGTGCACATGCAATGTTATTTT [GTGCAC_site9985]	9.17 ± 0.23
AAAAAAAAAAAACATACACACATACATACATATATA [CACACA_site8222]	8.48 ± 0.4
CACATACACATACAAACACACATTATGTATATATAT [CACACA_site1599]	8.62 ± 0.13
ATATATACAACTAAAGAACACACATCATTGTTCATT [CACACA_site9224]	8.48 ± 0.41
AAACAATTTTTTAAAAGTACTTGAAAATTGTGAAAT [XGTACX_site2461]	8.74 ± 0.37
AAAAAAATAACAAAAGTGCATTTTTATGAGTTATCT	8.49 ± 0.33
ATATATAATTAATAAAGTACATTAATTATTTCTTTT [XGTACX_site3034]	8.465 ± 0.078
AGATACAAGCACTATAGTACACATACTAAAAATATA [XGTACX_site5849]	8.68 ± 0.46
TATAATTAAAATTTGTGTACGTATGACAAAACATTT [XGTACX_site7072]	8.52 ± 0.31
TTTCCTTACCCTTTCCTGGTGTAGAAATTATACTCT [TGCATGCA_negctrl_site116]	8.72 ± 0.41
AATATATTATATATATGTACATAATGTGTAATACCT [XGTACX_site2845]	8.71 ± 0.36
TTAAAATTTTTCAAAAGTACATAAATAATATATATT [XGTACX_site4694]	8.47 ± 0.49
AAAAAAAATTCATATTGTACTTTTAAATTAAAGAAA [XGTACX_site4521]	8.15 ± 0.12

Sequence	gcPBM binding intensity (ln)
GGAAAAAAATATAAAAGTACTTTTTATTTATTTTAT [XGTACX_site7418]	8.36 ± 0.21
TTTTTTTTTGTTAAAGTGCATATATTAAATTTTCCT [GTGCAC_site9677]	8.51 ± 0.35
TTTATTTGTTCATGCGTGCACTTGATAACAATGTAC [GTGCAC_site9561]	8.945 ± 0.078
CGTTATATCAAAGGAGTGCATTATGAATACGTTTTA [GTGCAC_site9837]	8.77 ± 0.16
AGTGAATATCTAAAATGTACATAAATAAATAAATAA [XGTACX_site8293]	8.82 ± 0.38
AAAAAAAAAAAACATACACACATACATACAGATATA [CACACA_site4681]	8.5 ± 0.64
TTCTATTTTATATGTGCACACATATACACCCACAAA [CACACA_site1130]	9.26 ± 0.23
TTCTTTTTGAAACACACACACACAAGAAAATATATA [CACACA_site3110]	8.88 ± 0.48
TTTCACTACACAAATACACACAAAAATATATGTGCA [CACACA_site2632]	8.39 ± 0.42
AAATTTTTTGTTCAATGTACTTTTTTATTATATTTT [XGTACX_site5298]	8.64 ± 0.4
TCTACTATTATATATTGTACAAATGATACTTATATT [XGTACX_site1819]	8.62 ± 0.36
GATATATAATATAATACACACATTTTATGAATGTAA [CACACA_site24]	8.09 ± 0.23
ATTTTTTAAATTTAAACACACATTTTGTATATGTTT [CACACA_site1654]	8.71 ± 0.4
AAATTTTATAAAGGAACACACATTTTTTTTTTTTCT [CACACA_site2368]	8.17 ± 0.35
GAAATAATTTTTATTTGTACACACATACATATATAT [XGTACX_site1862]	8.76 ± 0.19
TTATTCATTTCGAAAAGTACAAATTCTGTTTATTAT [XGTACX_site6892]	8.52 ± 0.43
CCACTAATTATGTGCACACAAATTAAAGGTCTACAA [CACACA_site4259]	8.74 ± 0.12
TTTTGTCGGAAATCGGATAAGAAGAAAAAAAATAAT [GTGCAC_negctrl_site594]	8.81 ± 0.47
TTCACTCCATATTATACACACACACTAATGAAAAAA [CACACA_site8991]	8.73 ± 0.48
